The chains are these.
T1: UNK ZnF1-3 (human, UniProt Q9C0B0 31-174)
T1 sequence: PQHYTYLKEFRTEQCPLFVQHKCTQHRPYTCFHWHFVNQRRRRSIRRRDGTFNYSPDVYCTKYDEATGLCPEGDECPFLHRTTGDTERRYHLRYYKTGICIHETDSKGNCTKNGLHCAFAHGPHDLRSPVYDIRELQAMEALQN

B1: chr16:57473197:57473198:-_ENSG00000005194_ENST00000569370|hu_hu|FALSE|FALSE (ssRNA)
RNA: GGGAGUUCUACAGUCCGACGAUCGAUCCGGGCGAUUUCAGCCAAAAUCUCAGCACUGUGCAGAGUGGUGCUUCCUGGGACUAAACCUGACAAAAUAAUGUCAAAGCUGGAUUCUUUGUGGGCAGAUUGCAACAGCUGCUUGAUCAACAGAGGAUUGAGCAUCA
B2: chr7:140710375:140710376:-_ENSG00000090263_ENST00000324787|hu_mus|motif|central (ssRNA)
RNA: GGGAGUUCUACAGUCCGACGAUCGUUGUGAUUUGGAUACCAGUCAUAAGUCUCUUUCUUCUUGGCCAAGGGCUGCUCGCGGAACAGGCUCACCACUUUCAUGGACUUUGAGUCAGUAGACCUGGCCACUUCACCAAAGAUCCGCAACAGAGGAUUGAGCAUCA
B3: chr8:95500983:95500984:-_ENSG00000164944_ENST00000437199|hu_hu|hu_hu_hu_mus_True|28_98 (ssRNA)
RNA: GGGAGUUCUACAGUCCGACGAUCAGAACACAUCUAUUCGUGUAAAGACCGUACAUGACGGCCUCUACCACUGCCUCCACUAACAAACUUUCCUCUCGAGCCUCCACCUGCCGCUAUUGUACUAGCCCAGGACGGUCCCAGGCCCAACAGAGGAUUGAGCAUCA
B4: chr11:21040623:21040624:+_ENSMUSG00000020134_ENSMUST00000093290|mus_mus|FALSE|FALSE (ssRNA)
RNA: GGGAGUUCUACAGUCCGACGAUCAAUGUGCACGGUGCUAGGCUUCACCCCAUUUGCCUUAGGUCUUUUAAACAAAGCAAACCUACUUUUCCUCCUUCCUCUAUCACCGUUUGGGAGAGAUCCAUUAUAUCCUAAGACAAUGAGCAACAGAGGAUUGAGCAUCA
B5: chr12:73312838:73312839:-_ENSMUSG00000021087_ENSMUST00000021497|mus_mus|motif|central (ssRNA)
RNA: GGGAGUUCUACAGUCCGACGAUCUCAGUAUCAAGUACAUAAGUGCAAAUAUCCAGAGUCUGUGAUUGAGUCCAUUAGGAACGGCAGAGGAAGUAAUACAAAUUGUAAUAAAGUCAACAUGCUGGCACCUUUAGUUACCAUACACAACAGAGGAUUGAGCAUCA
B6: chr6:38652254:38652255:-_ENSG00000124767_ENST00000373365|hu_hu|hu_hu_hu_mus_False|1_98 (ssRNA)
RNA: GGGAGUUCUACAGUCCGACGAUCCGAGAACUUCAUAAUGGGAAAAUCAAGCUUCUGCAGGAGGGUCAGUCCAAGAACCCUCGUAUAAAAAUCCAGGGACUUCUUAGGAUCCUUAAUUCUUAGCAUCGUUUGCUGCAAUAGAAACAACAGAGGAUUGAGCAUCA
B7: chr12:48362563:48362564:+_ENSG00000134291_ENST00000256686|hu_hu|hu_hu_hu_mus_False|38_108 (ssRNA)
RNA: GGGAGUUCUACAGUCCGACGAUCUCCGAAGGGUGAAUCGAUAGACCCUUGCGGGGGAAACUGUAAUCACUUUGUAUGGGGAAGGAAAAGAAACGCCAACACACUUUCAAAAAGCGGGGGUGGGGUGAGGCGGGAGGGGGAGGUCAACAGAGGAUUGAGCAUCA
B8: chr12:82822756:82822757:-_ENSMUSG00000042724_ENSMUST00000035987|mus_mus|motif|central (ssRNA)
RNA: GGGAGUUCUACAGUCCGACGAUCGGCUGAGGAGGAGAGGCAGUAGACGGAUUUGGCUGAAUGACUCUGUAGUGUCACCCGGAAAGGAAAGGAAGACCGGAGGGUGGGGACAUAUGUGCACACCCCUCUCUAUACAGUCAGAGCCAACAGAGGAUUGAGCAUCA
B9: 33283916_33284036_869_CDS_ENSG00000236104_ENST00000431845|human|control|control (ssRNA)
RNA: GGGAGUUCUACAGUCCGACGAUCCAGCAGCAGCUUUCCAGAUGUGGCCCCUCCACUGCCAACGACAGGGGCUGGGAAUACAGGGCCACCUCCUCGACGCUCCCCACUGCCCACUGCAGAAGCUGCAAAUGCCUCUUGGGAGGACAACAGAGGAUUGAGCAUCA
B10: chr9:119834795:119834796:+_ENSMUSG00000032512_ENSMUST00000036561|mus_hu|FALSE|FALSE (ssRNA)
RNA: GGGAGUUCUACAGUCCGACGAUCAUGUAUACUUCCAGGAUAUGAAUAUCAAAUUAACUCACUAUGAUCUCCCUUUAUUCUGACACCAUAAAUUUUAGGUAACAUUUGAAUGAAACUGAAAUUUCAUCAUGGUCUUAAAUUUUGCAACAGAGGAUUGAGCAUCA
B11: chr3:9412954:9412955:+_ENSG00000134077_ENST00000452837|hu_mus|hu_hu_hu_mus_False|38_58 (ssRNA)
RNA: GGGAGUUCUACAGUCCGACGAUCGGUUGAUAUCUCUUCUUUGAUGGCUGGAUUUUCAUAAUAGUCCAAGAUAUGUGAAUCUAAAGCGCUGCUGGCAAACUCUUUUUUACCAUCUUUCUCAUCUGCUUUGUCUCCUUGUCCACACAACAGAGGAUUGAGCAUCA
B12: chr1:166823625:166823626:+_ENSG00000143157_ENST00000367875|hu_hu|motif|central (ssRNA)
RNA: GGGAGUUCUACAGUCCGACGAUCUAUUGUUGGGGUCAGUUCCUAUCUACUAGGGAGUACAACUAUAUCUCAAUAUGUGCGGUAGUAAUUCUAGGGUAACAGCCAUUCUGCAAAAUAGUUGUACUGGGGCUCUGUUAGGCAUAGCAACAGAGGAUUGAGCAUCA
B13: 35660675_35660795_482_CDS_ENSG00000100281_ENST00000216106|human|control|control (ssRNA)
RNA: GGGAGUUCUACAGUCCGACGAUCUGAAGAGCCAGAGGAUUUCUCCCCAGUCUUUUUGGAGGGCUUGGAGCCUGCUGCCAGUGGGGAAGUGAUAGCUUUCAACAGGUCCAUAGCUGUAUCAGUAGACUGUGGGCUGGACUUUUUCAACAGAGGAUUGAGCAUCA
B14: chr2:158287933:158287934:+_ENSMUSG00000027652_ENSMUST00000141497|mus_mus|FALSE|FALSE (ssRNA)
RNA: GGGAGUUCUACAGUCCGACGAUCAAGCGGUUGCUCCAGCAUUGCCAGGAUGACACUGUUAUCCAAAACAAAGUACCGGAAACUAUGCUUGUUUAUGGUUGGCAGCCUGGAGUAUUUGAUCAGAGUGGUCUCAUUCACCAGACUCAACAGAGGAUUGAGCAUCA
B15: chr15:52844276:52844277:-_ENSG00000128989_ENST00000249822|hu_hu|FALSE|FALSE (ssRNA)
RNA: GGGAGUUCUACAGUCCGACGAUCAUCCGGAGCUGCAGUAGGAAGUUGCUUGUUCUUCAUUUUUGCUUUAGCCAUGUUGUAAUCCCCAGAAUCAAAAUAUUUUUGCCCUUUCUGCAACCGUUUCCUUAAGAAAUCUGAACCUCCCAACAGAGGAUUGAGCAUCA
B16: 30009953_30010818_6256_CDS_ENSMUSG00000020315_ENSMUST00000011877|mouse|control|control (ssRNA)
RNA: GGGAGUUCUACAGUCCGACGAUCCUGUCUGCGCACUUCCAGUAGCUCCAACGUUGUCAGCCUUUCCAGAGCAGAGAAUCUCUCAUCCCAGGUCGCUGCAGACUUUUCAAACGCCUCAUGGCGCUUAAUAAGCUUCUCCACUUCCAACAGAGGAUUGAGCAUCA
B17: chr17:66526506:66526507:+_ENSG00000108946_ENST00000358598|hu_mus|FALSE|FALSE (ssRNA)
RNA: GGGAGUUCUACAGUCCGACGAUCGUACUGCUGGAUGUUCCGCUUGAGGAUGUCUGAGCACGGGCCAAGGACGCGUUCAAACCGAGGCCGGUCCAACUUAACGCACUUCAAAGGGCCCCGGGCAACCACAGUGGCAGCCCGAGGCAACAGAGGAUUGAGCAUCA
B18: chr5:136384420:136384421:-_ENSMUSG00000051391_ENSMUST00000055808|mus_mus|FALSE|FALSE (ssRNA)
RNA: GGGAGUUCUACAGUCCGACGAUCUACGACGGCUACAUAAUGACUCACAUUCAUGAAUAUUCCAUCACUGAGGAAACUGCUAAGAAUGGUCCGUGUGCGAAAUAAUUCCUUAGCGAAACACGGAGUUGGGGGGGAAAAAAUCACCAACAGAGGAUUGAGCAUCA
B19: chr6:38652254:38652255:-_ENSG00000124767_ENST00000373365|hu_hu|hu_hu_hu_mus_False|1_1 (ssRNA)
RNA: B6 RNA with A37G, U38C, G39A, A42G, A45G
B20: chr5:6374476:6374477:-_ENSG00000133398_ENST00000255764|hu_hu|motif|central (ssRNA)
RNA: GGGAGUUCUACAGUCCGACGAUCCAGGCUUUUAAAUUUCUUCAUGGUGUCGAUCUUGCCUUUAACUUGCUCAUUUUUAGCGGGAGCCCUCUCCAGGCACUCUUUGGUGUAGAGCUGGGGAUUUCGACCUUGAUCUAUAUAUUCCAACAGAGGAUUGAGCAUCA
B21: chr1:109605286:109605287:-_ENSG00000197780_ENST00000461096|hu_mus|hu_hu_hu_mus_True|28_28 (ssRNA)
RNA: GGGAGUUCUACAGUCCGACGAUCAAGUUUCAGAGUAACAUUCAGUAACCUCUUUAAAUGCAAUUAUCCUUAUUAUAAGCUAAGCAGAAUAAUAAUUUAAUACCGUAAGUAAAUACAACACAAAGCCUGAACCGCGAAAAUGGUCAACAGAGGAUUGAGCAUCA
B22: chr22:19452774:19452775:-_ENSG00000070010_ENST00000399523|hu_hu|hu_hu_hu_mus_False|68_68 (ssRNA)
RNA: GGGAGUUCUACAGUCCGACGAUCCUUCUCAUUGUAGUUGAUAGCAAUCACAUCUCCAGUCGUCAGACAGGCAAAGUUUCUCAAUGCAUUUUCUAAUACCGCUUUAGGGUUGGUAAUAUCCAGGAAGUCUGGGCUCUGAGGCUGCAACAGAGGAUUGAGCAUCA

Changes are numbered by the printed parent chain. Some of the results follow.

The assay addresses T1, UNK ZnF1-3. Kind of assay: nsRBNS (natural sequence RNA bind-n-seq); RBNS binding buffer (assumed for nsRBNS): 25 mM Tris pH 7.5, 150 mM KCl, 3 mM MgCl2, 0.01% Triton X-100, 500 ug/ml BSA, 20 U/ml SUPERase-In, 4 C; UNK is unkempt and MSI1 is Musashi-1; names of the RNAs are library labels; protein concentration not given here; high values mean tight binding.
B1 had a binding signal of 1.21 enrichment R.

In the case of B2, the binding signal came to 0.499 enrichment R. B3 registered a binding signal of 1.02 enrichment R. B4: the binding signal is 0.714 enrichment R. Consider B5, for which the binding signal is 1.8 enrichment R. Next, B6: 1.04 enrichment R; B7: 2.52 enrichment R. Regarding B8, the binding signal was 2.22 enrichment R. Turning to B9, the binding signal was found to be 0.638 enrichment R. As for B10, the binding signal came to 0.988 enrichment R. Molecule B11 had a binding signal of 0.381 enrichment R. For the molecule B12, the binding signal was determined as 1.13 enrichment R.

On to B13, for which the binding signal came to 1.39 enrichment R. Next, B14: 0.379 enrichment R; B15: 1.05 enrichment R; B16: 0.814 enrichment R.

With B17, the binding signal amounted to 1.12 enrichment R. As for B18, the binding signal is 1.5 enrichment R. Next, B19: 0.767 enrichment R; B20: 0.609 enrichment R; B21: 0.963 enrichment R.

B22 gave a binding signal of 0.958 enrichment R.

Values taken from PMC12136788.
